Assay results from PMC12136788.
This is one part of the list.

T1: UNK ZnF1-3 (human, UniProt Q9C0B0 31-174)
T1 sequence: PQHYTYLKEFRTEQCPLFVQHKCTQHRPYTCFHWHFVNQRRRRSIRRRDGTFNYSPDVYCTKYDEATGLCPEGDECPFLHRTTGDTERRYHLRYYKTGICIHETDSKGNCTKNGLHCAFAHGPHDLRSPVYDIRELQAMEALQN

B1: chr2:73747422:73747423:-_ENSMUSG00000018770_ENSMUST00000018914|mus_hu|motif|central (ssRNA)
RNA: GGGAGUUCUACAGUCCGACGAUCCUGAGACACACCAUUCUGGGCCCCAUUAAAUACCGUAGAGCCCUCUCCAGUCCGGCGGGCCUCUGGUCGAGAUAACACUGAUGCAGAAAUUGGUCUGUAUGCAACUCUGGAUCCAGCUCGCAACAGAGGAUUGAGCAUCA
B2: chr2:29004620:29004621:+_ENSG00000213639_ENST00000296122|hu_hu|motif|central (ssRNA)
RNA: GGGAGUUCUACAGUCCGACGAUCCAAUUUAAUAUUAAAUCUUCGUUUGCAUUCAUCAUAGAAUCCAUAAAUGCGAUUGAUGCGGGCACACUCAUGGUUUCCUCUUAAGAGAAAGAAGUUCUCUGGAUAUUUGAUUUUAUAAGCCAACAGAGGAUUGAGCAUCA
B3: chr17:30678820:30678821:+_ENSG00000010244_ENST00000394673|hu_mus|FALSE|FALSE (ssRNA)
RNA: GGGAGUUCUACAGUCCGACGAUCAUUUAAAAUGCUUUGCUUUUUGGUGCUGUAUAAGGAUCUUCUCAUCAUCAAAAUCUCUGUUACAAUACCAGCACCACGGCUUGAGCUGCUUCUUCUUCUUGCGACCCAUAACUGCGCCCUCAACAGAGGAUUGAGCAUCA
B4: chr2:202488911:202488912:-_ENSG00000155755_ENST00000286196|hu_mus|hu_hu_hu_mus_False|68_78 (ssRNA)
RNA: GGGAGUUCUACAGUCCGACGAUCAUUGAAACAUUUUUCAUAAUCUCCAGUAGCAUUCAGUAUUAUAUAAUCAAAAACUCAAUUGUAAAUACAUGUAUCUUAUAAAAAUACACUUAAAAACACGAGUGGGGAGCGCAGGCGCCACAACAGAGGAUUGAGCAUCA
B5: 70218037_70218157_4093_3pUTR_ENSMUSG00000030465_ENSMUST00000120071|mouse|control|control (ssRNA)
RNA: GGGAGUUCUACAGUCCGACGAUCAGUAGAAUUUUUAAAACUGGGUUCCUGGUAAAUCUUUUUAGAAGCUAGCAUGUGGGGGUAGGGGUGAAGCCCAAGAUACACACAGAUUUUAUACAAGGGGUACUUCAAUGGUCAGUUUUUCAACAGAGGAUUGAGCAUCA
B6: 51549937_51557071_1033_CDS_ENSMUSG00000036391_ENSMUST00000109097|mouse|control|control (ssRNA)
RNA: GGGAGUUCUACAGUCCGACGAUCUGGGCCUCCAGCUGGAGGGGGCCCAGGAGGAGCUCCUGGCUGAAAAGUGGGGGGCAGAGGUGGGUUCUGUAAGGGAAGUGCAGAACCUGGCUUUUUGAAGCUGGUUUGAAGUGCAGGGUCCAACAGAGGAUUGAGCAUCA
B7: chr15:41988372:41988373:+_ENSG00000174197_ENST00000570161|hu_mus|motif|central (ssRNA)
RNA: GGGAGUUCUACAGUCCGACGAUCUGUCUCUUCUUGUUUCACUGUUAUCCCUUCUGGGCAUUCACCAAGUUCAUAAUCAUAAUCAUCGGGAGGCUCUUCUUUAAUGACGACAUUAAAGUUUCCAUUCGGGUUUGAUGGUGAGGACAACAGAGGAUUGAGCAUCA
B8: 80378281_80380283_1559_CDS_ENSMUSG00000027002_ENSMUST00000028386|mouse|control|control (ssRNA)
RNA: GGGAGUUCUACAGUCCGACGAUCAACAGCAUCAAAGCCAGAGAGGUAUUGCACGUAGUACCUCUGCAUGACAGGCCCAUACUUCCUGACAUGUGCUCUAAGCUCUUCCAUGUAAAAUAUUAGCUCAGCAAUGUGCUUAUCUAUCAACAGAGGAUUGAGCAUCA
B9: chr11:100879890:100879891:+_ENSMUSG00000019302_ENSMUST00000044721|mus_mus|motif|central (ssRNA)
RNA: GGGAGUUCUACAGUCCGACGAUCCUGGAAAACAUUCACAUCUGGAUUUAAAUCCCGAAAUUGGACCUUCCCAAGCUCUCCGGAUUCACUGACACAGCAAUAAGCAGCUUCAGACUGUAGAAAUAGCUGGGCCAGCGUCAUCUCCAACAGAGGAUUGAGCAUCA
B10: chr1:93988920:93988921:+_ENSG00000137942_ENST00000370253|hu_mus|FALSE|FALSE (ssRNA)
RNA: GGGAGUUCUACAGUCCGACGAUCCAGAUCAUGGGCAUAUCUCAUUAAUUCACCAUAUACUCUGUGCGCCAUUUCUUCUGCUACUACCUCUCGCUGUCCUGCAUAGUCGUUUAACUCAUUAAGGAUGUUAAAAAAGGCGAUACACAACAGAGGAUUGAGCAUCA
B11: chr9:83676842:83676843:-_ENSMUSG00000032262_ENSMUST00000034796|mus_hu|FALSE|FALSE (ssRNA)
RNA: GGGAGUUCUACAGUCCGACGAUCAAUCCAUGGGCCAAAUGCAGUUAACCCAUAGUAUGAGUACAUAAUCACAUGGAUAAAGGAAUUCAACUGGGCUCCAAAAAAUGCUUGUCCUCCUGCAACCCACUUAAUUCCAAUCCACCACAACAGAGGAUUGAGCAUCA
B12: chr12:48362563:48362564:+_ENSG00000134291_ENST00000256686|hu_hu|hu_hu_hu_mus_False|38_38 (ssRNA)
RNA: GGGAGUUCUACAGUCCGACGAUCUCCGUCAAGCCCUUCGAUAGACCCUUGCGGGGGAAACUGUAAUCACUUUGUAUGGGGAAGGAAAAGAAACGCCAACACACUUUCAAAAAGCGGGGGUGGGGUGAGGCGGGAGGGGGAGGUCAACAGAGGAUUGAGCAUCA
B13: 90016286_90016406_504_CDS_ENSMUSG00000057706_ENSMUST00000082237|mouse|control|control (ssRNA)
RNA: GGGAGUUCUACAGUCCGACGAUCGGAACUGGGUACCGGCACGCACUCGGUCAUGUUCACGCUCUUCUUGCGCGGUUCGCUGUCGUACAAAGAGGCGCCCUCAUCACUGUCCAGUCCCAACAGGGAGAGCUGAUCGAGCGCAAGCAACAGAGGAUUGAGCAUCA
B14: chr14:78183846:78183847:+_ENSG00000119705_ENST00000557342|hu_hu|hu_hu_hu_mus_False|38_78 (ssRNA)
RNA: GGGAGUUCUACAGUCCGACGAUCUCUCAGAAAUCUUUCUUCAUCAGAUGUUUGAGCUGUUUGCGGAGCCUUUGCUCUUUGAGCUUGAACGUGGAUCUUUACUCCAUAAAGCACUGUCAGAAAAGGUAAUUUUUUUUUUAAAGACAACAGAGGAUUGAGCAUCA

Each binder was assayed against T1, UNK ZnF1-3 (assay: nsRBNS (natural sequence RNA bind-n-seq); RBNS binding buffer (assumed for nsRBNS): 25 mM Tris pH 7.5, 150 mM KCl, 3 mM MgCl2, 0.01% Triton X-100, 500 ug/ml BSA, 20 U/ml SUPERase-In, 4 C; UNK is unkempt and MSI1 is Musashi-1; names of the RNAs are library labels; protein concentration not given here; high values mean tight binding).

Binder	binding signal [enrichment R]
B1	1
B2	1.24
B3	0.719
B4	1.33
B5	2.56
B6	2.06
B7	0.961
B8	1.33
B9	0.493
B10	1.08
B11	0.832
B12	2.02
B13	0.721
B14	0.932
